# The other results are listed elsewhere or left out.
# B1: PpFlo3 (Pichia pastoris) (protein)
# chain: MGSSHHHHHHSSGLVPRGSHMQESGNGTTSDTAYACDIGATPFDGFNATIYQYQASDDNSIQDPVFMSTGYLQRNQLHSTTGVTNPGFNIFTAGVATTTLYGIPNVNYQNMLLELKGYFRADASGNYGLSLRNIDDSAILFFGRETAFECCNENLIPLDEAPTDYSLFTIKEGEASTNPDSYTYTQYLEAGRYYPVRTFFANIRTRAVFNFTMTLPDGSELTDFQNYIFQFGALNQ
# Legend:
# Test in all cases: glycan array binding signal (z-score within array); higher = stronger binding
# Conditions in all cases: glycan notation: IUPAC condensed, linker removed
# [1] = target: Fuc(a1-2)Gal(b1-4)[Fuc(a1-3)]GlcNAc
# Outline: (§1)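 From the Consortium for Functional Glycomics database, 3228 arrays were curated, keeping only those whose protein sequence was available. Binding is given as a within-array Z-score averaged across arrays sharing a protein sequence and across linkers. Negative Z-scores can be read as non-binding.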
# [2] = target: Fuc(a1-2)Gal(b1-4)[Fuc(a1-3)]GlcNAc(b1-2)Man(a1-3)[Fuc(a1-2)Gal(b1-4)[Fuc(a1-3)]GlcNAc(b1-2)Man(a1-6)]Man(b1-4)GlcNAc(b1-4)GlcNAc
# Outline: as §1
# [3] = target: Fuc(a1-2)Gal(b1-4)[Fuc(a1-3)]GlcNAc(b1-2)[Fuc(a1-2)Gal(b1-4)[Fuc(a1-3)]GlcNAc(b1-4)]Man(a1-3)[Fuc(a1-2)Gal(b1-4)[Fuc(a1-3)]GlcNAc(b1-2)Man(a1-6)]Man(b1-4)GlcNAc(b1-4)GlcNAc
# Outline: as §1
# [4] = target: Fuc(a1-2)Gal(b1-4)[Fuc(a1-3)]GlcNAc(b1-3)Gal(b1-4)[Fuc(a1-3)]GlcNAc
# Outline: as §1
# [5] = target: Fuc(a1-2)Gal(b1-4)[Fuc(a1-3)]GlcNAc(b1-3)Gal(b1-4)[Fuc(a1-3)]GlcNAc(b1-3)Gal(b1-4)[Fuc(a1-3)]GlcNAc
# Outline: as §1
# [6] = target: Fuc(a1-2)Gal(b1-4)[Fuc(a1-3)]GlcNAc(b1-3)GalNAc
# Outline: as §1
# [7] = target: Fuc(a1-2)Gal6S(b1-4)Glc
# Outline: as §1
# [8] = target: Fuc(a1-2)Gal6S(b1-4)Glc6S
# Outline: as §1
# [9] = target: Fuc(a1-2)Gal6S(b1-4)GlcNAc
# Outline: as §1
# [10] = target: Fuc(a1-2)[Gal(a1-3)]Gal
# Outline: as §1
# [11] = target: Fuc(a1-2)[Gal(a1-3)]Gal(b1-3)GalNAc
# Outline: as §1
# [12] = target: Fuc(a1-2)[Gal(a1-3)]Gal(b1-3)GlcNAc
# Outline: as §1
# [13] = target: Fuc(a1-2)[Gal(a1-3)]Gal(b1-3)GlcNAc(b1-2)Man(a1-3)[Fuc(a1-2)[Gal(a1-3)]Gal(b1-3)GlcNAc(b1-2)Man(a1-6)]Man(b1-4)GlcNAc(b1-4)GlcNAc
# Outline: as §1
# [14] = target: Fuc(a1-2)[Gal(a1-3)]Gal(b1-3)GlcNAc(b1-2)Man(a1-3)[Fuc(a1-2)[Gal(a1-3)]Gal(b1-3)GlcNAc(b1-2)Man(a1-6)]Man(b1-4)GlcNAc(b1-4)[Fuc(a1-6)]GlcNAc
# Outline: as §1
# [15] = target: Fuc(a1-2)[Gal(a1-3)]Gal(b1-3)GlcNAc(b1-3)GalNAc
# Outline: as §1
# [16] = target: Fuc(a1-2)[Gal(a1-3)]Gal(b1-4)Glc
# Outline: as §1
# [17] = target: Fuc(a1-2)[Gal(a1-3)]Gal(b1-4)GlcNAc
# Outline: as §1
# [18] = target: Fuc(a1-2)[Gal(a1-3)]Gal(b1-4)GlcNAc(b1-2)Man(a1-3)[Fuc(a1-2)[Gal(a1-3)]Gal(b1-4)GlcNAc(b1-2)Man(a1-6)]Man(b1-4)GlcNAc(b1-4)GlcNAc
# Outline: as §1
# [19] = target: Fuc(a1-2)[Gal(a1-3)]Gal(b1-4)GlcNAc(b1-2)Man(a1-3)[Fuc(a1-2)[Gal(a1-3)]Gal(b1-4)GlcNAc(b1-2)Man(a1-6)]Man(b1-4)GlcNAc(b1-4)[Fuc(a1-6)]GlcNAc
# Outline: as §1
# [20] = target: Fuc(a1-2)[Gal(a1-3)]Gal(b1-4)GlcNAc(b1-3)GalNAc
# Outline: as §1
# [21] = target: Fuc(a1-2)[Gal(a1-3)]Gal(b1-4)[Fuc(a1-3)]Glc
# Outline: as §1
# [22] = target: Fuc(a1-2)[Gal(a1-3)]Gal(b1-4)[Fuc(a1-3)]GlcNAc
# Outline: as §1
# [23] = target: Fuc(a1-2)[Gal(a1-3)]Gal(b1-4)[Fuc(a1-3)]GlcNAc(b1-3)GalNAc
# Outline: as §1
# [24] = target: Fuc(a1-2)[Gal(a1-4)]Gal(b1-4)GlcNAc
# Outline: as §1
# [25] = target: Fuc(a1-2)[GalNAc(a1-3)]Gal
# Outline: as §1
# [26] = target: Fuc(a1-2)[GalNAc(a1-3)]Gal(b1-3)GalNAc(a1-3)[Fuc(a1-2)]Gal(b1-4)GlcNAc
# Outline: as §1
# [27] = target: Fuc(a1-2)[GalNAc(a1-3)]Gal(b1-3)GlcNAc
# Outline: as §1
# [28] = target: Fuc(a1-2)[GalNAc(a1-3)]Gal(b1-3)GlcNAc(b1-2)Man(a1-3)[Fuc(a1-2)[GalNAc(a1-3)]Gal(b1-3)GlcNAc(b1-2)Man(a1-6)]Man(b1-4)GlcNAc(b1-4)GlcNAc
# Outline: as §1
# [29] = target: Fuc(a1-2)[GalNAc(a1-3)]Gal(b1-3)GlcNAc(b1-2)Man(a1-3)[Fuc(a1-2)[GalNAc(a1-3)]Gal(b1-3)GlcNAc(b1-2)Man(a1-6)]Man(b1-4)GlcNAc(b1-4)[Fuc(a1-6)]GlcNAc
# Outline: as §1
# [30] = target: Fuc(a1-2)[GalNAc(a1-3)]Gal(b1-3)GlcNAc(b1-3)GalNAc
# Outline: as §1
binder,measurement,setting,value
B1,glycan array binding signal (z-score),[1],4.84
same,glycan array binding signal (z-score),[2],-0.268
same,glycan array binding signal (z-score),[3],-0.29
same,glycan array binding signal (z-score),[4],-0.244
same,glycan array binding signal (z-score),[5],4.32
same,glycan array binding signal (z-score),[6],-0.241
same,glycan array binding signal (z-score),[7],-0.279
same,glycan array binding signal (z-score),[8],-0.178
same,glycan array binding signal (z-score),[9],-0.137
same,glycan array binding signal (z-score),[10],0.402
same,glycan array binding signal (z-score),[11],-0.291
same,glycan array binding signal (z-score),[12],-0.205
same,glycan array binding signal (z-score),[13],-0.259
same,glycan array binding signal (z-score),[14],-0.284
same,glycan array binding signal (z-score),[15],-0.269
same,glycan array binding signal (z-score),[16],-0.275
same,glycan array binding signal (z-score),[17],-0.222
same,glycan array binding signal (z-score),[18],-0.269
same,glycan array binding signal (z-score),[19],-0.238
same,glycan array binding signal (z-score),[20],-0.284
same,glycan array binding signal (z-score),[21],-0.254
same,glycan array binding signal (z-score),[22],-0.25
same,glycan array binding signal (z-score),[23],-0.271
same,glycan array binding signal (z-score),[24],-0.129
same,glycan array binding signal (z-score),[25],-0.298
same,glycan array binding signal (z-score),[26],-0.259
same,glycan array binding signal (z-score),[27],-0.276
same,glycan array binding signal (z-score),[28],2.65
same,glycan array binding signal (z-score),[29],-0.266
same,glycan array binding signal (z-score),[30],-0.014

# — the supplement of paper PMC8728848
